Laboratory results as given in publication PMC4336329 (PLoS ONE, 2015).
Among all 310,000 compounds or so, about 2,200 (0.71%) showed an effect of 50% or more. The effect is printed as a negative number. The list shows a part of the results.

Biological target: human ether-à-go-go-related gene (hERG) potassium channel (human, UniProt Q12809)
Test: primary screen, population patch clamp on CHO cells stably expressing hERG

Chain of human ether-à-go-go-related gene (hERG) potassium channel (Q12809 whole entry, looked up): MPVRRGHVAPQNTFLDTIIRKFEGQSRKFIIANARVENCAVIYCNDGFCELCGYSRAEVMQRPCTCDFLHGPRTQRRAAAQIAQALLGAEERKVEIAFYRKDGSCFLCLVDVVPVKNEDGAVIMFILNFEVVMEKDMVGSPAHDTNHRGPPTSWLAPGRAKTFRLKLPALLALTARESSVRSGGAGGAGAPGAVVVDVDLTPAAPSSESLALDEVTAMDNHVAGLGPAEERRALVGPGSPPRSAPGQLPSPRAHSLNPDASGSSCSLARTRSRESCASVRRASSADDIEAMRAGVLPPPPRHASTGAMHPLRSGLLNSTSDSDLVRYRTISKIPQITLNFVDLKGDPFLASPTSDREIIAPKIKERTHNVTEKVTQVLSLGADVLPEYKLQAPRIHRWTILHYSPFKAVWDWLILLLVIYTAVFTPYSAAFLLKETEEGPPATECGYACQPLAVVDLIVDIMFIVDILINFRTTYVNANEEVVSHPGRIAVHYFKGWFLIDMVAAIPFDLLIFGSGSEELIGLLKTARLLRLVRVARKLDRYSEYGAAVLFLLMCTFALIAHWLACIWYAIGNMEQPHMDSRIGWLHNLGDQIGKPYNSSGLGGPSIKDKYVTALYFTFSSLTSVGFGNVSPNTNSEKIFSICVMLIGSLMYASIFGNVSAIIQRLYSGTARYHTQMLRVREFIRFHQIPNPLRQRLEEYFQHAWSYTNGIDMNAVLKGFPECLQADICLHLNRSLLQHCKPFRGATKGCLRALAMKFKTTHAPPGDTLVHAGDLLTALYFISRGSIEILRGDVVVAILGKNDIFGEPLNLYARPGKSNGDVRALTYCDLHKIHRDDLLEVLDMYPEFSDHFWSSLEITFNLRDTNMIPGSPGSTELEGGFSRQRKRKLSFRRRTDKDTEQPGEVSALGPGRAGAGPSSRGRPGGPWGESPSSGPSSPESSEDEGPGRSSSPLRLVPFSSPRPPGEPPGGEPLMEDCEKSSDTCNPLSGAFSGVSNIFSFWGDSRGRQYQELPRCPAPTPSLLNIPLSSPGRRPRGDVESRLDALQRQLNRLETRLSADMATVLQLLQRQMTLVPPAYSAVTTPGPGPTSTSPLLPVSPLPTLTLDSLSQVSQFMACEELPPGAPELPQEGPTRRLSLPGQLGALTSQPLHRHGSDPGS

| Compound | hERG current change (%, negative = inhibition) at 1uM [%] |
| --- | --- |
| C=CCN1C(=O)c2ccc(C(=O)N(C)CC(=O)Nc3ccc(Br)cc3C)cc2C1=O | 3.86 |
| COc1ccc(C(=O)Nc2ccc(S(=O)(=O)Nc3nccnc3OC)cc2)cc1 | 3.99 |
| CC(C)C(NS(=O)(=O)c1cccc2nsnc12)C(=O)Nc1nccs1 (centres unmarked) | -10.8 |
| O=C(COC(=O)c1ccccn1)Nc1cccnc1Cl | 11.2 |
| CCc1cc(=O)n2[nH]c(-c3ccccc3)c(-c3ccccc3)c2n1 | 12.7 |
| Cc1ccc(Cl)cc1N1CCN(Cc2nnnn2C2CCCCC2)CC1 | 14.2 |
| COc1ccc(/C=C(\C#N)C(=O)Nc2cc(S(=O)(=O)N3CCOCC3)ccc2N2CCCC2)cc1 | 4.36 |
| CCn1c(=O)c(C(=O)NCCc2ccc(OC)c(OC)c2)c(O)c2ccccc21 | 8.62 |
| CC12CCC(C(=O)N/N=C/c3ccc(O)cc3)(OC1=O)C2(C)C (centres unmarked) | 14.4 |
| CC(=O)c1ccc(NS(=O)(=O)c2cc(-c3cnc(C4CC4)o3)ccc2C)cc1 | 13.6 |
| Nc1nc(Cl)cc(=O)n1Cc1ccc(Cl)cc1 | 13.5 |
| O=C(NC(=S)Nc1ccc2c(c1)OCCO2)c1ccco1 | 11.5 |
| CCc1cc2cccc(C)c2nc1SCC(=O)Nc1cc(C)on1 | 17.9 |
| O=C(CN1CCOCC1)NNC(=S)Nc1ccc(Cl)cc1 | 8.35 |
| O=C(NNC(=O)c1ccc2ccccc2c1)Nc1ccc(F)cc1 | 4.14 |
| CC(=O)Nc1c(O)nc(SCc2ccc(Cl)cc2)[nH]c1=O | 13.2 |
| O=C(Nc1c(O)c2ccccc2[nH]c1=O)c1ccco1 | 7.31 |
| O=C(N/C(=C\c1cccs1)C(=O)N1CCOCC1)c1cccs1 | 6.69 |
| Cc1occc1C(=O)N/N=C/c1ccc(-c2ccccc2)cc1 | 10.3 |
| COCCC(=O)Nc1ccc2c(c1)CN(C(=O)CCSC)CC2 | 9.01 |
| O=C(CCS(=O)(=O)c1ccc2c(c1)NC(=O)CS2)NCCc1ccc(Cl)cc1 | 10 |
| CC(C)C(NC(=O)c1ccccc1Cl)C(=O)OCc1nc2scc(-c3ccccc3Cl)c2c(=O)[nH]1 (centres unmarked) | 18.1 |

| Compound | hERG current change (%, negative = inhibition) at 1uM [%] |
| --- | --- |
| CCCNC(=O)Nc1ccc2c(c1)N(C)C(=O)c1ccccc1S2 | -10.5 |
| N#Cc1nc(-c2ccc(Cl)cc2)oc1NCC1CCCO1 (centres unmarked) | 5.31 |
| Cn1nc(C(=O)Nc2ccc(S(=O)(=O)N3CCOCC3)cc2)c2ccccc2c1=O | 12 |
| COc1ccc(NC2CCCN(C(=O)c3cccs3)C2)cc1 (centres unmarked) | 12.5 |
| CCOC(=O)c1c(NC(=O)C2C3CCC(O3)C2C(=O)O)sc2c1CCC(CC)C2 (centres unmarked) | -1.94 |
| CCOC(=O)N1CCN(c2cc(=O)n(Cc3ccc(F)cc3)c(=O)[nH]2)CC1 | -0.722 |
| COc1ccc(CCn2c(=N)c(S(=O)(=O)c3ccc(C)cc3)cc3c(=O)n4ccccc4nc32)cc1 | 14.5 |
| Cc1oc2cc(Br)c(O)c(Br)c2c1-c1ccccc1 | -3.56 |
| Cc1cc(C(=O)CSc2ncccn2)c(C)n1Cc1ccco1 | 12.3 |
| COc1ccc2[nH]c(C)c(C(=O)CN3CCN(C/C=C/c4ccccc4)CC3)c2c1 | 5.17 |
| O=C(O)COc1ccccc1/C=N/NC(=O)CSc1nc2ccccc2s1 | 11.7 |
| NS(=O)(=O)c1ccc(Nc2nc(-c3ccc4ccccc4c3)cs2)cc1 | -11.9 |
| COc1ccccc1NS(=O)(=O)c1cccc(C(=O)N/N=C(\C)c2cccnc2)c1 | 2.47 |
| CCCn1c(N)c(N(CCOC)C(=O)COC(=O)c2ccccc2NCCO)c(=O)[nH]c1=O | 9.06 |
| CC(Oc1ccc(-c2ccccc2)cc1)C(=O)N1CCOCC1 (centres unmarked) | 12.2 |
| C=CCNC(=S)Nc1ccc(N(C)C)cc1 | -5.92 |
| NS(=O)(=O)c1ccc(CNC(=O)CNC(=O)c2ccc(F)cc2)cc1 | 14.6 |
| CCOC(=O)CNC(=O)c1ccc(C#CC2(O)CCCCC2)cc1 | 13.5 |
| CCN(C(=O)CSc1nc(C)nc2sc(C)c(C)c12)c1ccc(F)cc1 | 7.21 |
| CC(C)(C)C(=O)CNS(=O)(=O)c1ccc(S(=O)(=O)NC2CCCC2)cc1 | 7.1 |
| COc1ccc(NC(=S)NC(C)Cc2cccs2)cc1 (centres unmarked) | 14.4 |
| O=C(c1ccccc1)c1nn(-c2ccccc2)c(=O)cc1C(F)(F)F | -3.08 |
